According to the supplement of paper PMC7238544:
Where a name gives a salt, the structure may show the parent alone. ± gives the standard deviation of the averaged measurements. The list shows a part of the results.

Experiments:
Details in all cases: priming compound concentration 100 µM
hAMSC donor 1 [1] = assay: Hoechst total cell count ratio vs vehicle control; higher = more cells (less toxicity)
hAMSC donor 2 [2] = assay: as above
hAMSC donor 1 [3] = assay: transgenic luciferase activity (RLU/mg protein) fold change vs vehicle control (ratio); higher = more transgene expression
hAMSC donor 2 [4] = assay: as above
hAMSC donor 1 [5] = assay: transfection efficiency (EGFP+ cells / Hoechst count) fold change vs vehicle control (ratio); hAMSC are human adipose-derived mesenchymal stem cells given an EGFP-luciferase plasmid by lipofection; higher = enhanced transfection
hAMSC donor 2 [6] = assay: as above
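Throughout, for Hoechst total cell count ratio vs vehicle control: compound added 30 min before Lipofectamine 3000 lipoplex delivery, triplicate-well means expressed against DMSO vehicle control wells of the same 96-well plate.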
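Throughout, for transfection efficiency (EGFP+ cells / Hoechst count) fold change vs vehicle control: compounds added 30 min before Lipofectamine 3000 lipoplex transfection, triplicate means relative to DMSO vehicle wells on the same plate, luciferase RLU normalized to BCA total protein.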
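Throughout, for transgenic luciferase activity (RLU/mg protein) fold change vs vehicle control: compounds in DMSO added 30 min before Lipofectamine 3000 transfection of pEGFP-Luc in 96-well plates, values are means of triplicate wells over DMSO vehicle wells on the same plate.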

Compound | Hoechst total cell count ratio (hAMSC donor 1 [1]) | Hoechst total cell count ratio (hAMSC donor 2 [2]) | transgenic luciferase activity (hAMSC donor 1 [3]) | transgenic luciferase activity (hAMSC donor 2 [4]) | transfection efficiency (hAMSC donor 1 [5]) | transfection efficiency (hAMSC donor 2 [6])
CC(C)[N+]1(C)[C@@H]2CC[C@H]1C[C@@H](OC(=O)C(CO)c1ccccc1)C2 (stereo not given in full) [Ipratropium bromide] | 0.883 ± 0.24 | 0.942 ± 0.34 | 1.31 ± 0.47 | 0.812 ± 0.36 | 2.43 ± 0.25 | 1.13 ± 0.2
O=C(O[C@H]1[C@H](Oc2ccccc2COC(=O)C2(O)C=CCCC2=O)O[C@H](CO)[C@@H](O)[C@@H]1O)c1ccccc1 (stereo not given in full) [Tremulacin] | 1.4 ± 0.11 | 1.23 ± 0.2 | 0.423 ± 0.15 | 0.731 ± 0.15 | 0.861 ± 0.15 | 0.442 ± 0.14
CN1C(C(=O)Nc2ccccn2)=C(O)c2ccccc2S1(=O)=O [Piroxicam] | 0.456 ± 0.043 | 0.499 ± 0.26 | 1.42 ± 0.56 | 0.38 ± 0.24 | 3.24 ± 0.67 | 1.02 ± 0.31
CC(COc1ccccc1)N(CCCl)Cc1ccccc1 (stereo not given) [Phenoxybenzamine hydrochloride] | 1.51 ± 0.057 | 0.988 ± 0.063 | 2.31 ± 0.44 | 1.09 ± 0.16 | 0.818 ± 0.2 | 1.56 ± 0.25
CC(C)NCC(O)COc1ccc(CCOCC2CC2)cc1 (stereo not given) [Betaxolol hydrochloride] | 1.75 ± 0.34 | 1.31 ± 0.04 | 1.33 ± 0.46 | 1.15 ± 0.24 | 1.01 ± 0.22 | 0.936 ± 0.19
CCN(Cc1ccncc1)C(=O)C(CO)c1ccccc1 (stereo not given) [Tropicamide] | 1.21 ± 0.076 | 1.76 ± 0.16 | 1.53 ± 1.4 | 0.528 ± 0.027 | 1.35 ± 0.42 | 0.848 ± 0.18
CC(C)(C)NCC(O)c1ccc(O)c(CO)c1 (stereo not given) [Salbutamol sulfate] | 1.22 ± 0.14 | 1.05 ± 0.12 | 0.748 ± 0.22 | 1.01 ± 0.31 | 1.08 ± 0.082 | 0.917 ± 0.14
Cc1ccnc2c1NC(=O)c1cccnc1N2C1CC1 [Nevirapine] | 1.73 ± 0.14 | 1.3 ± 0.09 | 3.04 ± 1.9 | 2.55 ± 0.61 | 1.57 ± 0.31 | 1.18 ± 0.074
COC(=O)CCc1ccc(OCC(O)CNC(C)C)cc1 (stereo not given) [Esmolol hydrochloride] | 0.91 ± 0.065 | 1.04 ± 0.077 | 3.11 ± 1.8 | 0.737 ± 0.28 | 1.72 ± 0.03 | 1.27 ± 0.062
COc1ccc(CC(C)NCC(O)c2ccc(O)c(NC=O)c2)cc1 (stereo not given) [Formoterol fumarate dihydrate] | 1.46 ± 0.34 | 1.2 ± 0.14 | 0.844 ± 0.34 | 0.466 ± 0.049 | 1.32 ± 0.26 | 0.836 ± 0.14
CC(N)C12CC3CC(CC(C3)C1)C2 (stereo not given) [Flumadine hydrochloride] | 0.875 ± 0.085 | 1.33 ± 0.058 | 0.87 ± 0.22 | 2.28 ± 0.28 | 1.3 ± 0.66 | 1.49 ± 0.22
CN1C(=O)CC[C@H]1c1cccnc1 [(-)-Cotinine] | 1.32 ± 0.039 | 1.43 ± 0.19 | 0.961 ± 0.28 | 1.61 ± 0.28 | 0.948 ± 0.24 | 0.925 ± 0.28
Clc1ccc2c(c1)CCc1cccnc1C2=C1CCNCC1 [Desloratadine] | 0.141 ± 0.018 | 0.0413 ± 0.028 | 0.00598 ± 0.0076 | 0.0471 ± 0.05 | 0.816 ± 0.33 | 0.47 ± 0.81
Cc1ccc(NC(=O)c2ccc(CN3CCN(C)CC3)cc2)cc1Nc1nccc(-c2cccnc2)n1 [Imatinib mesylate] | 0.564 ± 0.025 | 0.538 ± 0.08 | 0.359 ± 0.16 | 0.61 ± 0.05 | 0.803 ± 0.18 | 0.782 ± 0.094
C[C@]12CCC(=O)C=C1CC[C@@H]1[C@@H]2[C@@H](O)C[C@@]2(C)[C@H]1CC[C@]2(O)C(=O)COC(=O)CCC(=O)O [Hydrocortisone hemisuccinate] | 1.43 ± 0.15 | 0.973 ± 0.04 | 10.8 ± 2.7 | 1.63 ± 0.17 | 2.12 ± 0.32 | 1.26 ± 0.22
CCOc1cc(N)c(Cl)cc1C(=O)NCC1CN(Cc2ccc(F)cc2)CCO1 (stereo not given) [Mosapride citrate] | 1.84 ± 0.087 | 1.27 ± 0.058 | 1.48 ± 0.043 | 1.01 ± 0.2 | 1.48 ± 0.2 | 0.836 ± 0.21
Nc1c2c(nc3ccccc13)CCCC2 [Tacrine hydrochloride] | 1.43 ± 0.2 | 1.03 ± 0.12 | 0.437 ± 0.18 | 0.555 ± 0.15 | 0.835 ± 0.072 | 0.926 ± 0.12
COc1c(N2C[C@@H]3CCCN[C@@H]3C2)c(F)cc2c(=O)c(C(=O)O)cn(C3CC3)c12 [Moxifloxacin hydrochloride] | 2.26 ± 0.028 | 0.992 ± 0.11 | 0.892 ± 0.61 | 1.46 ± 0.16 | 0.565 ± 0.12 | 0.802 ± 0.029
C=CC1=C(C(=O)O)N2C(=O)[C@@H](NC(=O)/C(=N\O)c3csc(N)n3)[C@H]2SC1 [Cefdinir] | 1.19 ± 0.32 | 0.614 ± 0.034 | 0.547 ± 0.2 | 0.357 ± 0.065 | 0.962 ± 0.34 | 0.769 ± 0.12
CC[N+](C)(C)c1cccc(O)c1 [Edrophonium chloride] | 1.27 ± 0.063 | 0.679 ± 0.076 | 1.56 ± 0.57 | 0.667 ± 0.25 | 0.858 ± 0.27 | 1.1 ± 0.2
Clc1ccccc1C(c1ccccc1)(c1ccccc1)n1ccnc1 [Clotrimazole] | 0.311 ± 0.17 | 0.25 ± 0.053 | 0.365 ± 0.45 | 0.229 ± 0.19 | 0.26 ± 0.26 | 0.268 ± 0.17
Cc1nc(=O)c2cc(CN(C)c3ccc(C(=O)N[C@@H](CCC(=O)O)C(=O)O)s3)ccc2[nH]1 [Raltitrexed] | 1.43 ± 0.21 | 1.17 ± 0.035 | 1.21 ± 0.34 | 1.06 ± 0.13 | 0.747 ± 0.24 | 0.835 ± 0.11
C[C@]12CC[C@@H]3c4ccc(OS(=O)(=O)O)cc4CC[C@H]3[C@@H]1CCC2=O [Estrone 3-sulfate sodium salt] | 1.15 ± 0.11 | 1.42 ± 0.089 | 0.942 ± 0.56 | 0.919 ± 0.12 | 0.697 ± 0.091 | 1.06 ± 0.18
CN(C)[C@@H]1C(O)=C(C(N)=O)C(=O)[C@@]2(O)C(O)=C3C(=O)c4c(O)ccc(Cl)c4[C@@H](O)[C@H]3C[C@@H]12 [Demeclocycline] | 1.74 ± 0.087 | 1.94 ± 0.21 | 0.119 ± 0.044 | 0.498 ± 0.26 | 0.212 ± 0.078 | 0.403 ± 0.068
Cc1sc(N)c(C(=O)c2cccc(C(F)(F)F)c2)c1C | 1.7 ± 0.061 | 1.44 ± 0.057 | 0.182 ± 0.094 | 0.486 ± 0.13 | 0.422 ± 0.12 | 0.431 ± 0.056
